The full ranking holds about 33,000 sequences; the median of “E-score (-0.5 to 0.5)” is about -0.054, and the highest 2% start at about 0.35. Some of the results follow.
Target: T1, Stb5 (UniProt P38699)
T1 sequence: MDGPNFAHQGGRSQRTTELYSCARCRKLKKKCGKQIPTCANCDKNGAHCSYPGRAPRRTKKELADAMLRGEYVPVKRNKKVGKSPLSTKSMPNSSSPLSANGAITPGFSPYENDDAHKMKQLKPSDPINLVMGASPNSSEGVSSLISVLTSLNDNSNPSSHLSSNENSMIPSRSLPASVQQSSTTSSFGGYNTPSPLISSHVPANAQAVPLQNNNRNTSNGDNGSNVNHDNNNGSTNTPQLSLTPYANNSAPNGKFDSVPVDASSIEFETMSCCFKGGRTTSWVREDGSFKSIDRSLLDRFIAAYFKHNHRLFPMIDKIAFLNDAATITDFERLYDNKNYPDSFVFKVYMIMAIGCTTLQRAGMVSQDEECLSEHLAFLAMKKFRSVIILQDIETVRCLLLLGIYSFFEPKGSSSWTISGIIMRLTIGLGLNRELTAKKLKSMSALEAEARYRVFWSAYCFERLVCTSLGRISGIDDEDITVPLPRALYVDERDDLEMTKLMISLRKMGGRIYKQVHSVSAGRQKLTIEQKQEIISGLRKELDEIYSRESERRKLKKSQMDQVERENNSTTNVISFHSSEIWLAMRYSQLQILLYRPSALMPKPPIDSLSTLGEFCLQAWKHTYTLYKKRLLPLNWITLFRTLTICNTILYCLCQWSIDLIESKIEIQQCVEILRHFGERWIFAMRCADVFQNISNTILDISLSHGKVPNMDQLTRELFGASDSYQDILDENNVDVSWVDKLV
Test: PBM E-score (8-mer binding enrichment) (E-score (-0.5 to 0.5)); higher = stronger / more preferred TF binding; most listed sequences are background and not binding sites
Conditions: protein concentration: 200 nM; construct: GST-full length
Protocol: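 Universal 'all 10-mer' protein binding microarrays (Agilent AMADID 015681) probed with GST-tagged S. cerevisiae TFs (full-length or DBD) made by in vitro transcription/translation (PURExpress), about 100-200 nM. Bound TF was detected with fluorescent anti-GST. Each ungapped 8-mer (which stands for itself and its reverse complement) is scored by the PBM enrichment score (E-score), a modified Wilcoxon-Mann-Whitney statistic from -0.5 to +0.5, computed with the Universal PBM Analysis Suite. Scale: above 0.35 generally sequence-specific binding.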

Row | Sequence | PBM E-score
1 | AAACGTGT | -0.0456
2 | GACGGCCA | 0.0605
3 | GCGCCGTA | 0.253
4 | CACTGATG | -0.213
5 | CTCATGGA | -0.198
6 | ATCCAATG | -0.285
7 | AAGAGACC | 0.0225
8 | GGGATGTA | -0.0169
9 | GGGGAAAC | 0.24
10 | GTATTGAC | 0.0119
11 | ACGACCGA | 0.133
12 | GACACTCC | -0.0416
13 | CCAGGAGC | -0.0678
14 | GACACATC | 0.0343
15 | AAGAGCCA | -0.192
16 | CCTTTTAA | -0.0551
17 | CTGCGATA | -0.101
18 | TAAAGGGA | -0.0718
19 | AGATACGG | 0.17
20 | AAGTCCGA | 0.459
21 | GATATAGC | 0.265
22 | CAAGCCCA | -0.213
23 | CAATCGAA | -0.11
24 | TAGAGGCA | -0.328
25 | GTTTCTCA | -0.00586

Row | Sequence | PBM E-score
26 | AACTGGTG | -0.103
27 | AAGCTGGA | -0.251
28 | CACCATCA | -0.111
29 | AACGTGAT | -0.138
30 | CCATGGCG | 0.128
31 | CCGATTGA | 0.201
32 | CCAAAATC | 0.00739
33 | GCGCCACA | 0.0131
34 | AAATTTTA | -0.0381
35 | AGACGCCC | 0.0667
36 | ATGTGCCA | -0.289
37 | AATTACAG | 0.0714
38 | CCTATCCC | -0.0427
39 | CTTAAAGC | -0.00953
40 | ATCCTGAG | -0.196
41 | CCACTGGA | -0.0858
42 | GCATATCA | 0.0781
43 | GCCTTTCC | 0.122
44 | GGAAACCC | 0.0625
45 | GCGTTAAA | 0.142
46 | AAACCAAT | -0.0843
47 | CAGCTAAA | -0.0749
48 | CAACATGA | -0.0296
49 | AGCAGTAT | -0.298
50 | GGGGAGAC | 0.0556

Row | Sequence | PBM E-score
51 | AACGTATT | 0.0177
52 | CTTCACGC | -0.0191
53 | ATCCACTA | -0.0942
54 | CTCCCGAA | -0.115
55 | CACAGTGC | -0.011
56 | AACTCAGA | -0.171
57 | AAAATGCA | -0.0284
58 | CCTTTCCG | 0.145
59 | CGAAAAAA | 0.0463
60 | ACGCTGCG | -0.0833
61 | CTTACCTC | -0.0144
62 | ATCCCAGC | -0.0779
63 | CGCTGCAG | 0.179
64 | TCAGAGGA | -0.101
65 | AAGTAGTC | -0.0712
66 | CAAGGCCG | 0.236
67 | GATGTTAC | 0.0742
68 | GGCATAGA | 0.06
69 | AGCCACTC | -0.246
70 | CGTCCCTC | 0.0578
71 | CCGTTTCC | 0.238
72 | AAGTGGCT | -0.164
73 | GCAGACTA | -0.158
74 | GGGATGGA | 0.0483
75 | CCGAAAGC | 0.224

Row | Sequence | PBM E-score
76 | TAACGTGA | -0.0299
77 | CATGTTCG | -0.0809
78 | CGCTCAAG | 0.0206
79 | TCCCAACA | -0.108
80 | CCTCAACA | -0.061
81 | ACCCAGTC | -0.0393
82 | CGAAGCAA | -0.131
83 | CAGTTCCA | -0.105
84 | CACACTGC | -0.0183
85 | AGTCCTAT | -0.0967
86 | AAAGTTCG | -0.114
87 | CGAACCAA | -0.0395
88 | GGACTTAA | 0.373
89 | CCCGCGAG | 0.275
90 | AAAATCAC | -0.092
91 | AGTCAAGA | -0.214
92 | AAGGTGAA | -0.00388
93 | GTAGAAAC | 0.123
94 | AAAATTTT | -0.002
95 | ATTTGCTA | -0.0128
96 | AACCGTAG | -0.118
97 | CGATCGAC | 0.0669
98 | ATTCAATA | -0.0406
99 | TAGCATGA | -0.178
100 | TATTCTAA | 0.0373

Row | Sequence | PBM E-score
101 | TTCATCAA | -0.0727
102 | AGGATAAG | 0.0121
103 | CACCTGAG | -0.257
104 | CGAATATC | -0.0932
105 | TGGGTGAA | 0.0477
106 | GACCAGGA | -0.127
107 | GCGGCTAA | 0.217
108 | ACAGGAAT | -0.225
109 | AATTATAG | -0.079
110 | GCGTATGA | 0.0661
111 | AACCAATG | -0.285
112 | AAGCCAAC | -0.172
113 | ATCAACAT | -0.262
114 | AGGTAAGA | -0.126
115 | CTAGCGAG | -0.263
116 | CAGCGTGC | 0.0885
117 | TGCCTCCA | -0.237
118 | ATTTTCAC | 0.0625
119 | CCAGTCCC | -0.0931
120 | TTCGTCAA | -0.226
121 | CCCCATGC | 0.0392
122 | AAGAACGT | -0.222
123 | CTACTATC | 0.111
124 | ATCAGTAC | -0.0547
125 | CAGACCCG | 0.119

Row | Sequence | PBM E-score
126 | ACGGGCAA | 0.138
127 | GTCTAAAC | 0.0672
128 | CAATTCAG | -0.221
129 | GTCTCGTA | -0.104
130 | GAGGATCC | -0.00498
131 | ACACATGC | -0.0683
132 | AATCATGC | -0.032
133 | CTCAAGCA | -0.368
134 | TAAACAGA | -0.101
135 | ATCACCTA | -0.11
136 | CATTCTGC | -0.126
137 | AAGTGGAG | -0.197
138 | AACGGTGA | 0.355
139 | AATACAAT | -0.0439
140 | ATCCGTTC | 0.177
141 | CACGACGA | -0.184
142 | ATGAGATC | -0.146
143 | CAAATTAA | -0.0662
144 | CAAAACGA | -0.172
145 | ACCCATCC | -0.11
146 | AAGTGGGG | -0.0897
147 | AGCACTTC | -0.288
148 | GAGCAATA | -0.118
149 | CATTAGTA | 0.0522
150 | TCGATAGA | -0.0352

Row | Sequence | PBM E-score
151 | TCATCAAA | -0.201
152 | CACATCTC | -0.151
153 | TCGTTAAA | 0.196
154 | ACTCATCA | -0.258
155 | ACCGTTAT | 0.145
156 | AATCGATA | -0.274
157 | AGGCACCA | -0.0686
158 | CCTCCAAG | -0.229
159 | GAACACCA | -0.132
160 | ATTAACAA | -0.0234
161 | AGAGCCCG | 0.309
162 | AATAGTTA | -0.0392
163 | ACGCCTAC | -0.128
164 | GAATGACC | 0.238
165 | CCTTCCGC | 0.138
166 | CGCCCCAC | -0.0903
167 | AACGAGCC | -0.13
168 | AGCTTGCC | -0.212
169 | AGGACTCC | -0.136
170 | GCGATGGA | 0.262
171 | AGTATATA | 0.131
172 | CCACTAGA | -0.0459
